These results are taken from publication PMC12136788.

Some of the results follow.

T1: UNK ZnF1-3 (human, UniProt Q9C0B0 31-174)
T1 sequence: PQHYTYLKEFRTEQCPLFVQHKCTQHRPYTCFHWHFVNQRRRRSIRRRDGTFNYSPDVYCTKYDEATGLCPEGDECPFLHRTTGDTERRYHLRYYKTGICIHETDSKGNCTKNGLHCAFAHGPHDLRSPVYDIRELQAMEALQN

B1: chrX:20249591:20249592:+_ENSMUSG00000001924_ENSMUST00000001989|mus_mus|motif|central (ssRNA)
RNA: GGGAGUUCUACAGUCCGACGAUCCACCAGGAAGUACUUUUGCUUGCUCAGCUUCUCCUGAAAGUCUGACCCAAAUACAGCGGCCUGCCCAUCGUAACGGUUCUGACGUGGGAGGCACUUCUCCUCUGUCAGAGCCUCUUUGUCCAACAGAGGAUUGAGCAUCA
B2: chr1:46159212:46159213:+_ENSG00000159596_ENST00000372025|hu_mus|hu_hu_hu_mus_True|8_98 (ssRNA)
RNA: GGGAGUUCUACAGUCCGACGAUCUCUGAUCCCUCCCAAGAAAGAUAGGAAACCGGCUCCAUAAGCCAUCUGAGUGAAAGCUAGGACGGGGAUAUAAGACUUUGUUAUUACCAUGAGAAGUGGGGGAGCAACGAAGGGGAUUAACAACAGAGGAUUGAGCAUCA
B3: 25299266_25299475_5332_CDS_ENSMUSG00000026944_ENSMUST00000102919|mouse|control|control (ssRNA)
RNA: GGGAGUUCUACAGUCCGACGAUCGUUCAUGGGGUGGUUGGUGACGGUGAUGCCAUAGGCUGCUGGAUUGCCCUUGCUUUUGGGUAGGUUUGCACGCAGAAUGGCAUUGUUGAGGCUGUUGAGGUAGGUGGGCAUGCUGUGGUACAACAGAGGAUUGAGCAUCA
B4: chr14:66974463:66974464:+_ENSMUSG00000022044_ENSMUST00000074523|mus_hu|mus_mus_mus_hu_False|1_88 (ssRNA)
RNA: GGGAGUUCUACAGUCCGACGAUCUUGUAGGACGACUUAUUCAGGGGAUCAGACAAGAAGCAGGAGCAGAACAAGGACACCAGCGGGAGCUCCUUCAUCUUCUCUUUGUAGGCAGCAAGGGUCAUGUUUCUGGGAUCCUGGUGGCAACAGAGGAUUGAGCAUCA
B5: 72942203_72944209_2190_3pUTR_ENSMUSG00000036698_ENSMUST00000044113|mouse|control|control (ssRNA)
RNA: GGGAGUUCUACAGUCCGACGAUCCAGCUUGAUGCAGGCCUCUCUGAUGGCCAGGAGCUCAUGGUGGAGAACCUGCUGGAACUGGCCCUCGGAGACGCCAUCGCGGUAGAAGAUGAUGCGGGUGGGCUUGAAGCGGGUGGACUUCAACAGAGGAUUGAGCAUCA
B6: chr2:75765252:75765253:+_ENSMUSG00000042410_ENSMUST00000047232|mus_hu|FALSE|FALSE (ssRNA)
RNA: GGGAGUUCUACAGUCCGACGAUCAGUGAUUCAAAGUAAUCAUUUCACUUUAAUAUCCAGGUUUGAAUGUACAAAUGCUUGCUAAAUGUGAUUAAUGUUCUCAUUAUUUAAGAAACAGGAUAUUUCAAACUUUUGAUUAUGGUACAACAGAGGAUUGAGCAUCA
B7: 219134153_219134704_336_CDS_ENSG00000127837_ENST00000248450|human|control|control (ssRNA)
RNA: GGGAGUUCUACAGUCCGACGAUCGCCGACCACCCCUUCCUGGGGUUCUAGAACCCAGCCCUCUUCGUUGCCCUCUUCCUCCUCUUCUUCCUCAAAGUCCACAUCUUCCAUCUCCUGGGCCAGGUCAUCUGGGUCCGGCGGACCCAACAGAGGAUUGAGCAUCA
B8: chr2:35989780:35989781:-_ENSMUSG00000026889_ENSMUST00000028251|mus_mus|FALSE|FALSE (ssRNA)
RNA: GGGAGUUCUACAGUCCGACGAUCGCAUUCUCCAGGGGAAGAGUUUUGGUUUCUGUUUCCAUCAAUCUCUGAGAAAUACUGCUAGCCUCAGAGCUGUGCCCUCAGCUCAUGCCCCGAAAGCAGCUUCCGACGCUGGGGUCCGAGCAACAGAGGAUUGAGCAUCA
B9: chr5:71593506:71593507:-_ENSG00000113048_ENST00000457646|hu_mus|FALSE|FALSE (ssRNA)
RNA: GGGAGUUCUACAGUCCGACGAUCAUCUAGAUCUUCUCGGGAUGCAAUGUUGUCCACAAACCGUGAUAUUGAUAAAGAACUAACAGGCAAUUUUCUUUCAUACGCUUUGUCCAUUAAGGAUGCAAGAUCAGCCAGAUGGUAUUCCAACAGAGGAUUGAGCAUCA
B10: chr2:103900078:103900079:+_ENSMUSG00000027180_ENSMUST00000028603|mus_hu|motif|central (ssRNA)
RNA: GGGAGUUCUACAGUCCGACGAUCCUCCUCCUCCUCUUCUUCCAUCUCUUCAUAUUCAUCAGGACCCAUUUCCAAUCGGGCGGUAGACACCCUGAAUGUUGGACAUGCCAUAUGGAAUCGGGGAAUGGCAACAUUAAAGAUCUUCAACAGAGGAUUGAGCAUCA
B11: 39958035_39958377_338_CDS_ENSMUSG00000026074_ENSMUST00000163854|mouse|control|control (ssRNA)
RNA: GGGAGUUCUACAGUCCGACGAUCCAGCUCAAAAAUCCCAGCAGGGUCCCGCAGGGACGACAGGUCAAUGUCCACCAGGCUCUUCGCGGGAGAGUCGUUCGCCAUCUUCCCCGGGUCGCCGCUCCGGGAGCGGGCGAGAGAGCGCAACAGAGGAUUGAGCAUCA
B12: chr11:80292881:80292882:+_ENSMUSG00000048895_ENSMUST00000053413|mus_mus|FALSE|FALSE (ssRNA)
RNA: GGGAGUUCUACAGUCCGACGAUCCAGCUUAAAAUUAACAAUUGGGGGGGGGGGGCAGGGAUGGGAAACAGCAACACCCCUAUUGACUGAUCUCACCUCCCCCCAACGAUACAGAACAAAGAUCACGGGCACCAGCGAGAGGCCCAACAGAGGAUUGAGCAUCA
B13: 30087084_30087204_3749_3pUTR_ENSG00000139514_ENST00000380752|human|control|control (ssRNA)
RNA: GGGAGUUCUACAGUCCGACGAUCGGAAAGGAAACUAAGUUUUGAAAGCAGCAUUUCCAUUUCCCCUGGUGUCCAAAAUGCCCACAUCCCUCCUCCUCCCCCAUCAGCAUGGGCCUUCUGUCUCCUGAAGUAGACUCAGUGGAACAACAGAGGAUUGAGCAUCA
B14: chr7:65705475:65705476:+_ENSG00000169902_ENST00000304842|hu_hu|hu_hu_hu_mus_True|18_68 (ssRNA)
RNA: GGGAGUUCUACAGUCCGACGAUCUCUAUUCGGUGAUGGCACUCCAUGGCAUGCUGGCCCAGGUAAAACACAGUCACAGAACUAAUCACCAGACACGCCAAGAGUAAGUUCUGCUUCAGCUUUCCAACCAUCUUGAUGUGGUUACAACAGAGGAUUGAGCAUCA

The target in the test is T1, UNK ZnF1-3. Description: nsRBNS (natural sequence RNA bind-n-seq); RBNS binding buffer (assumed for nsRBNS): 25 mM Tris pH 7.5, 150 mM KCl, 3 mM MgCl2, 0.01% Triton X-100, 500 ug/ml BSA, 20 U/ml SUPERase-In, 4 C; UNK is unkempt and MSI1 is Musashi-1; names of the RNAs are library labels; protein concentration not given here; high values mean tight binding.
As to B1, the binding signal was found to be 0.623 enrichment R.
As for B2, the figure is 1.69 enrichment R; as for B3, 0.732 enrichment R.
Regarding B4, the binding signal came to 1.78 enrichment R.
Regarding B5, the binding signal was found to be 0.897 enrichment R.
As to B6, the binding signal stood at 0.812 enrichment R.
As for B7, the figure is 1.15 enrichment R.
Molecule B8 showed a binding signal of 1.42 enrichment R.
In turn, B9 displayed a binding signal of 0.967 enrichment R.
The molecule B10 came in with a binding signal of 0.868 enrichment R.
B11 showed a binding signal of 1.34 enrichment R.
Molecule B12 gave a binding signal of 1.05 enrichment R.
B13 came in with a binding signal of 0.995 enrichment R.
In the case of B14 it was 0.58 enrichment R.
